NF-kB reporter and ISRE reporter data for 27 compounds are collected here from the supplement of paper PMC9174493.

The list shows a part of the results. Single values of this set are uncertain. Values with irradiation are relative to irradiated vehicle.

In experiment [1] the test system is A549-Dual. The experiment is described as follows: NF-kB reporter (SEAP) activity, viability-corrected, relative to vehicle (fold change vs vehicle); higher = more activation of STING-IRF / NF-kB immune response reporter. The following applies: 10 µM.
Experiment [2] deals with A549-Dual. The experiment is described as follows: ISRE reporter (Lucia luciferase) activity, viability-corrected, relative to vehicle (fold change vs vehicle); higher = more activation of STING-IRF / NF-kB immune response reporter. The settings on record: 10 µM.
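Wherever NF-kB reporter (SEAP) activity, viability-corrected, relative to vehicle is given: viability correction based on the alamar blue assay, with concentrations leaving 10% survival or less dropped.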

Consider `Nc1ccc(S(=O)(=O)Nc2ccc(Cl)nn2)cc1` [Sulfachloropyridazine], for which the figures for the NF-kB reporter in the experiment on A549-Dual [1] (irradiation: 8 Gy/4 fr) and with A549-Dual [1] (irradiation: none) were 0.665 and 0.944, respectively. The ISRE reporter in the experiment with A549-Dual [2] (irradiation: 8 Gy/4 fr) is 0.69; in the experiment on A549-Dual [2] (irradiation: none) it was 0.661.
Take `CO/N=C(\C(=O)NC1C(=O)N2C(C(=O)O)=CCSC12)c1csc(N)n1` (stereo not drawn) [Ceftizoxime]: the values for the NF-kB reporter in the experiment on A549-Dual [1] (irradiation: 8 Gy/4 fr) and in the experiment on A549-Dual [1] (irradiation: none) were 0.926 and 0.908, respectively. For the same compound, the figures for the ISRE reporter in the experiment with A549-Dual [2] (irradiation: 8 Gy/4 fr) and with A549-Dual [2] (irradiation: none) were 0.983 and 0.741, respectively.
For `C#CC1(O)CCC2C3CCC4=Cc5oncc5CC4(C)C3CCC21C` (stereo not drawn) [Danazol] the same measures were 0.696, 0.709, 0.797 and 0.981.
Taken in the same sequence, the figures for `CC(C)NC(=N)NC(=N)Nc1ccc(Cl)cc1` [Proguanil] were 0.647, 0.928, 0.607 and 0.818.
Taken in the same sequence, the figures for `NCC1OC(OC2C(CO)OC(OC3C(O)C(N)CC(N)C3OC3OC(CN)C(O)C(O)C3N)C2O)C(N)C(O)C1O.O=S(=O)(O)O` (stereo not drawn) [Neomycin sulfate] were 0.931, 0.998, 0.847 and 0.999.
Consider `CC(C)(S)C(N)C(=O)O` (stereo not drawn) [Penicillamine], for which the NF-kB reporter was 1.04 with A549-Dual [1] (irradiation: 8 Gy/4 fr) and 0.97 in the experiment with A549-Dual [1] (irradiation: none). Besides, the ISRE reporter turned out to be 0.986 in the experiment with A549-Dual [2] (irradiation: 8 Gy/4 fr) and 0.831 with A549-Dual [2] (irradiation: none).
For `O=C([O-])c1ccccn1.O=C([O-])c1ccccn1.O=C([O-])c1ccccn1.[Cr+3]` [Chromium picolinate], the NF-kB reporter in the experiment with A549-Dual [1] (irradiation: 8 Gy/4 fr) is 0.86; in the experiment on A549-Dual [1] (irradiation: none) it was 0.952. Moreover, the ISRE reporter in the experiment on A549-Dual [2] (irradiation: 8 Gy/4 fr) turned out to be 0.755; in the experiment on A549-Dual [2] (irradiation: none), 0.807.
For the compound `COc1cc(C(=O)NC2CCCNC2)cc(OC)c1OC` (stereo not drawn) [Troxipide], the NF-kB reporter was 0.697 in the experiment on A549-Dual [1] (irradiation: 8 Gy/4 fr) and 1.58 with A549-Dual [1] (irradiation: none). Also, the ISRE reporter with A549-Dual [2] (irradiation: 8 Gy/4 fr) is 0.652; with A549-Dual [2] (irradiation: none) it was 1.13.
Taken in the same sequence, the figures for `CC(=O)Oc1c(C)c(C)c2c(c1C)CCC(C)(CCCC(C)CCCC(C)CCCC(C)C)O2` (stereo not drawn) [Vitamin E Acetate] were 0.86, 0.955, 0.736 and 0.636.
For `Cc1c(S(=O)(=O)[O-])oc2c1C(=O)C(=O)c1c-2ccc2c1CCCC2(C)C.[Na+]` [Tanshinone IIA sulfonate (sodium)] the same measures were 0.819, 0.897, 0.848 and 0.932.
Taken in the same sequence, the figures for `COc1cc2nc(N3CCN(C(=O)c4ccco4)CC3)nc(N)c2cc1OC.Cl` [Prazosin HCl] were 1.06, 1.48, 0.733 and 0.876.
On to `OCC1OC(OC2(CO)OC(CO)C(O)C2O)C(O)C(O)C1O` (stereo not drawn) [Inulin], for which the results for the NF-kB reporter in the experiment with A549-Dual [1] (irradiation: 8 Gy/4 fr) and with A549-Dual [1] (irradiation: none) were 0.901 and 0.987, respectively. The ISRE reporter in the experiment on A549-Dual [2] (irradiation: 8 Gy/4 fr) amounted to 0.895; in the experiment with A549-Dual [2] (irradiation: none), 0.822.
Consider `CO/N=C(\C(=O)NC1C(=O)N2C(C(=O)[O-])=C(C[N+]3(C)CCCC3)CSC12)c1csc(N)n1.Cl.Cl.O` (stereo not drawn) [Cefepime Dihydrochloride Monohydrate], for which the figures for the NF-kB reporter in the experiment on A549-Dual [1] (irradiation: 8 Gy/4 fr) and in the experiment on A549-Dual [1] (irradiation: none) were 0.757 and 1.05, respectively. Moreover, the ISRE reporter with A549-Dual [2] (irradiation: 8 Gy/4 fr) was found to be 0.692; in the experiment with A549-Dual [2] (irradiation: none), 0.726.
Taken in the same sequence, the figures for `CC1CN(CC(Cc2ccccc2)C(=O)NCC(=O)O)CCC1(C)c1cccc(O)c1` (stereo not drawn) [Alvimopan] were 0.824, 1.12, 0.742 and 0.69.
Taken in the same sequence, the figures for `CC1=CCC2CC1C2(C)C` [(1S)-(-)-α-Pinene] were 0.903, 0.786, 0.793 and 0.566.
For `CCC1OC(=O)CC(O)C(C)C(OC2OC(C)C(OC3CC(C)(O)C(O)C(C)O3)C(N(C)C)C2O)C(CC=O)CC(C)C(=O)/C=C/C(C)=C/C1COC1OC(C)C(O)C(OC)C1OC.O=C(O)C(O)C(O)C(=O)O` (stereo not drawn) [Tylosin tartrate] the same measures were 0.819, 0.904, 0.93 and 0.746.
Consider `CC1CCOC2Cn3cc(C(=O)NCc4ccc(F)cc4F)c(=O)c(O)c3C(=O)N12` (stereo not drawn), for which the NF-kB reporter with A549-Dual [1] (irradiation: 8 Gy/4 fr) came to 0.588; in the experiment on A549-Dual [1] (irradiation: none), 0.839. Further, the ISRE reporter in the experiment with A549-Dual [2] (irradiation: 8 Gy/4 fr) came to 0.465; with A549-Dual [2] (irradiation: none), 0.64.
Taken in the same sequence, the figures for `CC(=O)OC/C=C/c1ccccc1` [Cinnamyl acetate] were 1.44, 1.33, 1.35 and 1.25.
As to `COc1cc2c(cc1OC)C1CC(OC(=O)C(N)C(C)C)C(CC(C)C)CN1CC2.Cc1ccc(S(=O)(=O)O)cc1.Cc1ccc(S(=O)(=O)O)cc1` (stereo not drawn) [Valbenazine tosylate], the NF-kB reporter stood at 0.746 in the experiment on A549-Dual [1] (irradiation: 8 Gy/4 fr) and 0.523 in the experiment with A549-Dual [1] (irradiation: none). Also, the results for the ISRE reporter in the experiment on A549-Dual [2] (irradiation: 8 Gy/4 fr) and with A549-Dual [2] (irradiation: none) were 0.799 and 0.705, respectively.
With `CC(CN(C)C)CN1c2ccccc2Sc2ccccc21.CC(CN(C)C)CN1c2ccccc2Sc2ccccc21.O=C(O)C(O)C(O)C(=O)O` (stereo not drawn) [Alimemazine Tartrate], the NF-kB reporter with A549-Dual [1] (irradiation: 8 Gy/4 fr) came to 0.716; in the experiment on A549-Dual [1] (irradiation: none), 0.617. Also, the ISRE reporter in the experiment on A549-Dual [2] (irradiation: 8 Gy/4 fr) amounted to 0.826; in the experiment on A549-Dual [2] (irradiation: none) it was 1.02.
For `COc1cc(OC)c(C(=O)CCCN2CCCC2)c(OC)c1.Cl` [Buflomedil HCl] the same measures were 0.855, 1.33, 0.707 and 0.718.
Taken in the same sequence, the figures for `Cc1cccc(Nc2ccccc2C(=O)O)c1C` [Mefenamic Acid] were 0.892, 1.13, 0.702 and 0.694.
Taken in the same sequence, the figures for `CC(C)=CCCC(C)(OC1OC(CO)C(O)C(O)C1O)C1CCC2(C)C1C(O)CC1C3(C)CCC(O)C(C)(C)C3C(OC3OC(CO)C(O)C(O)C3OC3OCC(O)C(O)C3O)CC12C` (stereo not drawn) [Notoginsenoside R1] were 0.784, 0.695, 0.723 and 0.634.
For `CNC(=O)c1cnn(-c2nc(N)c3ncn(C4OC(CO)C(O)C4O)c3n2)c1` (stereo not drawn) [Regadenoson], the NF-kB reporter stood at 0.721 in the experiment on A549-Dual [1] (irradiation: 8 Gy/4 fr) and 0.567 in the experiment on A549-Dual [1] (irradiation: none). For the same compound, the ISRE reporter in the experiment with A549-Dual [2] (irradiation: 8 Gy/4 fr) is 0.74; in the experiment on A549-Dual [2] (irradiation: none), 0.432.
Taken in the same sequence, the figures for `C=C1C(=O)OC2C1CC/C(C)=C/CCC1(C)OC21` (single isomer, unassigned; (-)) [(-)-Parthenolide] were 1.11, 0.503, 0.547 and 0.362.
Turning to `CN(C)CCOC(C)(c1ccccc1)c1ccccn1.O=C(O)CCC(=O)O` (stereo not drawn) [Doxylamine Succinate], the NF-kB reporter was 0.888 in the experiment with A549-Dual [1] (irradiation: 8 Gy/4 fr) and 1.35 with A549-Dual [1] (irradiation: none). Further, the ISRE reporter in the experiment on A549-Dual [2] (irradiation: 8 Gy/4 fr) was found to be 0.765; in the experiment on A549-Dual [2] (irradiation: none), 0.744.
Taken in the same sequence, the figures for `Cc1nc2c([nH]1)-c1ccccc1N(C(=O)c1ccc(NC(=O)c3ccccc3-c3ccccc3)cc1)CC2.Cl` [Conivaptan HCl] were 0.702, 0.838, 0.763 and 1.25.
